Reference: PubChem BioAssay AID1768 (National Center for Advancing Translational Sciences (NCATS), 2009)
Screen size: about 270,000 compounds; about 620 (0.23%) were called active. Inconclusive means that the source gave no clear call. Such entries were picked first, then a sample of the others. Calls follow the shape of the dose curve; as a rule, active = well fitted inhibition curve with a large enough effect in the polarisation, with a control signal flat (not every such curve was filed as active); inconclusive = small, poorly fitted or top-dose-only effect, or effect the other way, or a change in a side signal; inactive = no such curve, though single readings can be large or run the other way; the % refers to the polarisation. Potencies of inconclusive entries are doubtful fits and often do not repeat. “Side channel” marks fits to a control or component signal instead of the main read-out.

Target: Menin (Homo sapiens) (UniProt O00255)
Chain of UniProt O00255 (O00255 whole entry, looked up): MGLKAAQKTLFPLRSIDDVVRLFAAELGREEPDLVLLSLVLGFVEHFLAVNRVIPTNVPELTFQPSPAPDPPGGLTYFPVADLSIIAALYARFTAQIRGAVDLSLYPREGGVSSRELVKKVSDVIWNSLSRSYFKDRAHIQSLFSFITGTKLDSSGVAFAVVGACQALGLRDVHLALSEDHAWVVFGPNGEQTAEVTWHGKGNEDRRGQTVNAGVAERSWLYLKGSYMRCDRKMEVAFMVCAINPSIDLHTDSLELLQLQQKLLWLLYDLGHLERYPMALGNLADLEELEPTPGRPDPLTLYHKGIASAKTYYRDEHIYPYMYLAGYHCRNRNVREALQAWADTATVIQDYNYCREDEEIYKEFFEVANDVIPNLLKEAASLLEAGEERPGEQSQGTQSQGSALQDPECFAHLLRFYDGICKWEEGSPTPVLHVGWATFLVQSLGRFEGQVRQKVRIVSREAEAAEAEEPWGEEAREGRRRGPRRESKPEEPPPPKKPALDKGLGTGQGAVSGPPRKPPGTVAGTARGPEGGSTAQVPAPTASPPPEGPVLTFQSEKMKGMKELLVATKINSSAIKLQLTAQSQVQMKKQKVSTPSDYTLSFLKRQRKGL
Test: qHTS Assay for Inhibitors Targeting the Menin-MLL Interaction in MLL Related Leukemias: Competition With Texas Red Labeled MLL-derived Mutant Peptide
Conditions: fluorescence polarization; series mostly up to 61.6 µM
Potency is read from the fitted curve at half-maximal effect; tags tell the direction and shape of the fitted curve or compound fluorescence and quenching.

Question: Which Potency does the source give for `Cc1cccc(N2CCN(C(=O)C3CCN(c4ncnc5c4nc4n5CCCCC4)CC3)CC2C)c1` (configuration not stated) here?
Answer: inconclusive: 0.631 µM [inhibitor, full curve, poor fit]

Question: Which Potency does the source give for `COc1ccc(-n2c(C)cc(C3=NNC(=NC4CC4)SC3)c2C)cc1` here?
Answer: inactive

Question: Which Potency does the source give for `COc1cccc(NC(=O)C(OC(=O)c2ccc([N+](=O)[O-])o2)c2ccccc2)c1` (configuration not stated) here?
Answer: inconclusive: 17.8 µM [quencher, side channel, partial curve]

Question: How did the Potency turn out when `COCC(=O)Nc1c(C(=O)Nc2ccc3c(c2)OCO3)oc2ccccc12` was run?
Answer: inconclusive: 35.5 µM [inhibitor, single point]

Question: How did the Potency turn out when `O=c1c(-c2nnc(SCc3ccc(Cl)cc3)o2)cccn1Cc1ccccc1` was run?
Answer: inconclusive: 8.91 µM [inhibitor, single point]

Question: Which Potency does the source give for `Cc1cc(-c2ccc([N+](=O)[O-])cc2)nc2ccccc12` here?
Answer: inconclusive: 22.4 µM [quencher, side channel, partial curve]

Question: How did the Potency turn out when `O=C(OCc1ccc(Cl)c(Cl)c1)c1ccc[nH]1` was run?
Answer: inconclusive: 7.94 µM [quencher, side channel, full curve]

Question: With `COc1ccc(NC(=O)CSc2nc(N)c(C(=O)Nc3ccc(N(C)C)cc3)s2)cc1` as the molecule, how does the Potency read?
Answer: inconclusive: 17.8 µM [quencher, side channel, partial curve]

Question: With `CCOc1ccc(C2=Cc3cc(OC)c(OC)cc3C(=C(Cl)Cl)O2)cc1` as the molecule, how does the Potency read?
Answer: inactive

Question: For `COc1ccc(-c2cc(C(F)(F)F)c3c(n2)sc2c(O)cc(=O)[nH]c23)c(OC)c1`, which Potency is on record?
Answer: inconclusive: 31.6 µM [quencher, side channel, partial curve]

Question: For `Cc1ccc(C(=O)NC(=S)Nc2ccc(NC(=O)c3cccs3)cc2)cc1[N+](=O)[O-]`, which Potency is on record?
Answer: inconclusive: 3.55 µM [quencher, side channel, partial curve]

Question: `COc1cc(S(=O)(=O)N(C)C2CCCCC2)c(C)cc1C` was tested. Which Potency did it give?
Answer: inconclusive: 14.1 µM [fluorescent, side channel, partial curve]

Question: `Cc1ccc(N2C(=O)C3C4C=CC(C4)C3C2=O)cc1` (configuration not stated) was tested. Which Potency did it give?
Answer: inactive

Question: How did the Potency turn out when `CC(=O)c1cccc(NC(=O)CCCN(C)S(=O)(=O)c2ccc(F)cc2)c1` was run?
Answer: inconclusive: 0.891 µM [inhibitor, full curve, poor fit]

Question: `O=C1c2cccc(OCC(=O)N3CCCc4ccccc43)c2CCN1Cc1cccnc1` was tested. Which Potency did it give?
Answer: inactive

Question: How did the Potency turn out when `COc1cccc(NC(=O)C(OC(=O)c2ccccc2NS(=O)(=O)c2cccs2)c2ccccc2)c1` (configuration not stated) was run?
Answer: inconclusive: 25.1 µM [inhibitor, single point]

Question: How did the Potency turn out when `COc1cc(C(=O)N2c3ccccc3CCC2C)cc(OC)c1OC` (configuration not stated) was run?
Answer: inconclusive: 44.7 µM [inhibitor, single point]

Question: Which Potency does the source give for `C[C@@H]1OC(Oc2ccccc2-c2cc(=O)c3c(O)cc(O)c([C@@H]4O[C@H](CO)[C@@H](O)[C@H](O)[C@H]4O)c3o2)[C@H](O)[C@H](O)[C@H]1O` (some centres not stated) here?
Answer: inactive

Question: `O=C(Oc1coc(CSc2nnc(NC(=O)c3cccs3)s2)cc1=O)c1ccccc1` was tested. Which Potency did it give?
Answer: inconclusive: 28.2 µM [quencher, side channel, single point]

Question: How did the Potency turn out when `COc1ccccc1C(=O)Nc1ccc(Br)c2cccnc12` was run?
Answer: inconclusive: 11.2 µM [quencher, side channel, partial curve]

Question: `COc1ccc(C(=O)c2sc(Nc3ccccc3)nc2N)cc1` was tested. Which Potency did it give?
Answer: inconclusive: 14.1 µM [quencher, partial curve]

Question: How did the Potency turn out when `O=C(Cc1ccccc1)NC(=S)Nc1ccc(N2CCCCC2)cc1` was run?
Answer: inconclusive: 22.4 µM [quencher, side channel, partial curve]

Question: Which Potency does the source give for `CCOc1ccccc1-c1nnc2n1N=C(c1cc(OC)ccc1OC)CS2` here?
Answer: inactive

Question: For `Cc1cc(SCC(=O)NC(=O)NCc2ccco2)nc2c(C)cccc12`, which Potency is on record?
Answer: inactive

Question: `Cc1cccc(C(=O)N2CCC(=O)N([C@H](COCc3ccc(Cl)cc3)Cc3ccccc3)CC2)c1` was tested. Which Potency did it give?
Answer: inconclusive: 2.51 µM [inhibitor, full curve, poor fit]

Question: How did the Potency turn out when `Cc1ccc2occ(C(c3nnnn3C3CCCC3)N3CCN(C(=O)c4ccco4)CC3)c(=O)c2c1` (configuration not stated) was run?
Answer: inconclusive: 22.4 µM [fluorescent, side channel, single point]

Question: With `COc1ccc(CNc2ccc(Br)cc2)cc1` as the molecule, how does the Potency read?
Answer: inconclusive: 12.6 µM [quencher, side channel, partial curve]

Question: For `CCOC(=O)C1(CCc2ccccc2)CCN(C(=O)[C@@H]2C[C@@H](C)NC(=S)N2)CC1`, which Potency is on record?
Answer: inconclusive: 17.8 µM [fluorescent, side channel, partial curve]

Question: `N#CC1=C(N)NC(SCc2ccc(F)cc2)=C(C#N)C12CCCCC2` was tested. Which Potency did it give?
Answer: inconclusive: 22.4 µM [quencher, side channel, partial curve]

Question: How did the Potency turn out when `COc1ccc(C(=O)Nc2ccc(N3CCCCC3)cc2)cc1Br` was run?
Answer: inconclusive: 31.6 µM [quencher, side channel, partial curve]

Question: `COC(=O)c1ccn(Cc2ccccc2Cl)n1` was tested. Which Potency did it give?
Answer: inconclusive: 22.4 µM [fluorescent, side channel, single point]

Question: For `COc1ccc(N=N/C(=C\O)C(=O)c2cccs2)cc1`, which Potency is on record?
Answer: inconclusive: 35.5 µM [quencher, side channel, partial curve]

Question: `O=C(N/N=C/c1ccc([N+](=O)[O-])cc1)c1ccccc1OCc1ccccc1` was tested. Which Potency did it give?
Answer: inconclusive: 31.6 µM [inhibitor, single point]

Question: How did the Potency turn out when `N#Cc1nc(COc2ccc(Cl)cc2)oc1NCc1ccc2c(c1)OCO2` was run?
Answer: inconclusive: 31.6 µM [quencher, side channel, single point]

Question: For `CC1=NN(c2ccc([N+](=O)[O-])cc2)C(=O)C1[N+](=O)[O-]` (configuration not stated), which Potency is on record?
Answer: inconclusive: 25.1 µM [quencher, side channel, single point]

Question: How did the Potency turn out when `CCc1cc(-c2[nH]ncc2-c2ccc(OC)cc2)c(O)cc1O` was run?
Answer: inconclusive: 15.8 µM [quencher, side channel, single point]

Question: How did the Potency turn out when `Cn1cc(/C=C(\C#N)C(=O)Nc2ccccc2O)c2ccccc21` was run?
Answer: inconclusive: 7.08 µM [quencher, side channel, partial curve]
